According to the supplement of paper PMC12217912:
Some of the results follow. Sequences were assembled here from the parent chain. Values near 0.05 are background.

B1: TEV protease; numbered along this chain (parent)
chain: MGESLFKGPRDYNPISSSICHLTNESDGHTTSLYGIGFGPFIITNKHLFRRNNGTLVVQSLHGVFKVKDTTTLQQHLVDGRDMIIIRMPKDFPPFPQKLKFREPQREERICLVTTNFQTKSMSSMVSDTSCTFPSGDGIFWKHWIQTKDGQCGSPLVSTRDGFIVGIHSASNFTNTNNYFTSVPKNFMELLTNQEAQQWVSGWRLNADSVLWGGHKVFMVKPEEPFQPVKEATQL

Variants of: B1
Experiment: raw area under fraction-flipped curve 0-4 h after induction (AUC4h, not background-subtracted), DNA-recorder readout of cleavage of the substrate (dimensionless); higher = more cleavage of the substrate by the protease variant
Conditions: temperature: 34 °C; time window: 0-4 h after rhamnose induction
Procedure: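 In vivo DNA recorder in E. coli TOP10(DE3) ΔrhaA at 34 °C. Each TEVp single-site mutant (parent TEVp 0) is paired with a single-site variant of the 7-mer TEVs (canonical ENLYFQ|S). The substrate sits between flexible linkers in a Bxb1-sfGFP-TEVs-SsrA fusion, so cleavage stabilises Bxb1 and speeds flipping of a recombination array, read by NGS. The value is the raw area under the fraction-flipped curve over 0-4 h after rhamnose induction (AUC4h), with ≥20 reads per time point. It is not background-subtracted; inactive controls average about 0.047.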
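Also: Bxb1 expression induced with 0.2% (w/v) L-rhamnose at OD600 near 0.5, cultures sampled hourly, flipped fraction per protease–substrate barcode pair counted by paired-end Illumina sequencing.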

Variant	area with substrate ENLYFAS	area with substrate ENLYFCS	area with substrate ENLYFES	area with substrate ENLYFFS	area with substrate ENLYFIS	area with substrate ENLYFKS	area with substrate ENLYFMS	area with substrate ENLYFPS	area with substrate ENLYFTS	area with substrate ENLYFVS	area with substrate ENLYFWS	area with substrate ENLYFNS	area with substrate ENLYFRS	area with substrate ENLYFYS	area with substrate ENLYFDS	area with substrate ENLYFGS	area with substrate ENLYFHS	area with substrate ENLYFLS	area with substrate ENLYFSS
L211F	0.0529	0.0685	0.0818	0.0741	0.0614	0.0634	0.0703	0.0654	0.0569	0.0249	0.0546								
R87W	0.0648		0.0737			0.0665	0.069	0.0532				0.0556	0.061	0.0562					
S121C	0.0668	0.0644	0.0522		0.0536	0.065				0.0566	0.0524	0.0651			0.0627	0.0631			
I85G	0.0507	0.0076	0.0514	0.0617	0.0533	0.0628	0.051	0.0594	0.0564	0.0424			0.0434		0.053		0.0409		
L235I	0.0554			0.0753	0.0528	0.0607	0.0657	0.0564						0.0696	0.0587	0.0586	0.0537	0.0669	0.0584
L235N	0.0418	0.0754	0.0441	0.0708		0.0603	0.0598	0.0575			0.0658	0.0514	0.0645			0.0557			
K148Y	0.0575		0.0933	0.0699				0.0803		0.0708		0.0623	0.0459		0.0246			0.0391	0.0554
S17Y	0.0566	0.0548		0.0628	0.0542	0.0804	0.0708	0.0539	0.0571		0.0578	0.063	0.054	0.0576	0.0472	0.0401	0.0547		0.049
M122G	0.053		0.0697		0.0454				0.0512			0.0596		0.0609		0.0568			0.0519
K120R	0.0651	0.0644	0.0669	0.0673	0.0611		0.0412	0.0571	0.0634	0.0518	0.0417	0.0722			0.0602	0.0623	0.0693		0.0597
Q234D	0.0516	0.0689	0.0492	0.054	0.0602	0.0583	0.0762		0.0458		0.0226	0.0638	0.0722	0.0711	0.067	0.0805	0.0421		0.0539
M188I	0.0312	0.0481		0.0611	0.0491		0.0344	0.0606	0.0388		0.0493		0.0562	0.0259			0.0485		
T132L	0.0523				0.0575	0.0687	0.074	0.0579	0.058		0.0615	0.0783	0.0537		0.0583		0.0703	0.0503	0.0409
L190S	0.0571	0.0315		0.0584	0.0672					0.0546							0.064		
L190Q	0.0551	0.0507	0.0645	0.0846	0.0611		0.0673		0.058										0.063
L190C	0.0541	0.0589	0.0595		0.053	0.0339	0.0739			0.0476		0.0512							0.0687
S158W	0.0566	0.0444	0.0518	0.0622	0.0496	0.0388	0.0505	0.0473	0.0503	0.0515	0.0501	0.0392	0.0519	0.0427	0.0383	0.0506	0.051		0.0365
K66T	0.059	0.0631	0.0601	0.0751	0.0563	0.0683	0.0679	0.0571	0.0558		0.0488		0.093	0.0364	0.0519			0.0628	0.0607
E108L	0.0421		0.0484	0.0703	0.059	0.0659	0.0595	0.0571	0.0621				0.0557	0.0421		0.0527	0.0453		0.0475
D27R	0.0728	0.051	0.0525	0.0524	0.052		0.0786	0.0651	0.0413		0.0546	0.0675	0.0586	0.0443		0.0666	0.0383		0.0466
V78K	0.0484	0.052	0.0708	0.0609	0.0525	0.0653	0.0388	0.0541	0.0579	0.0596		0.0487	0.0723				0.0585		0.0568
G63C	0.0658	0.059	0.0748	0.0735	0.0619	0.0605	0.0619	0.0604	0.0585	0.0537	0.0384	0.0659		0.0576			0.0644		0.0693
D69M	0.0666	0.0725	0.0564	0.0969	0.0752	0.069	0.0505	0.0641	0.0633		0.0667					0.0601			
C111V	0.0496	0.0578	0.0495	0.0686	0.057	0.0803	0.0577	0.0579	0.0659		0.0542	0.0634	0.0389	0.0579	0.062	0.0509	0.0713	0.0644	
C111F	0.0869	0.0626	0.0179	0.0917	0.0392	0.0634	0.0706	0.0795	0.0495	0.0633	0.0553	0.0731			0.0402	0.0307	0.065	0.0558	0.07
P228C	0.0598		0.0585		0.0505	0.0789	0.0614	0.0686	0.0566			0.0521	0.0662	0.057	0.0658			0.0622	
Q75H	0.064		0.0662	0.0634	0.0503	0.0578	0.0608		0.0561	0.0571	0.0534	0.0477	0.0633		0.0664			0.0674	0.0484
V210F	0.0645	0.0628	0.0584	0.0597	0.0604		0.0615	0.0675	0.0701	0.0513	0.0649	0.06		0.0528	0.0588		0.0624	0.0412	
